Data from PubChem BioAssay AID1452 (National Center for Advancing Translational Sciences (NCATS), 2008).
The campaign covered roughly 150,000 compounds. About 190 (0.13%) were called active. This list was built around the results that the source calls inconclusive (neither active nor inactive); the mix of calls is not that of the screen. The call rests on the fitted dose curve; in most records, active means well fitted inhibition curve with a large enough effect; inconclusive means small, poorly fitted or top-dose-only effect; inactive means flat fitted curve, though single readings scatter. A potency beside an inconclusive call is a rough fit, not a confirmed value.

Target: Polyunsaturated fatty acid lipoxygenase ALOX12 (Homo sapiens) (UniProt P18054)
UniProt P18054, sequence (P18054 whole entry, looked up): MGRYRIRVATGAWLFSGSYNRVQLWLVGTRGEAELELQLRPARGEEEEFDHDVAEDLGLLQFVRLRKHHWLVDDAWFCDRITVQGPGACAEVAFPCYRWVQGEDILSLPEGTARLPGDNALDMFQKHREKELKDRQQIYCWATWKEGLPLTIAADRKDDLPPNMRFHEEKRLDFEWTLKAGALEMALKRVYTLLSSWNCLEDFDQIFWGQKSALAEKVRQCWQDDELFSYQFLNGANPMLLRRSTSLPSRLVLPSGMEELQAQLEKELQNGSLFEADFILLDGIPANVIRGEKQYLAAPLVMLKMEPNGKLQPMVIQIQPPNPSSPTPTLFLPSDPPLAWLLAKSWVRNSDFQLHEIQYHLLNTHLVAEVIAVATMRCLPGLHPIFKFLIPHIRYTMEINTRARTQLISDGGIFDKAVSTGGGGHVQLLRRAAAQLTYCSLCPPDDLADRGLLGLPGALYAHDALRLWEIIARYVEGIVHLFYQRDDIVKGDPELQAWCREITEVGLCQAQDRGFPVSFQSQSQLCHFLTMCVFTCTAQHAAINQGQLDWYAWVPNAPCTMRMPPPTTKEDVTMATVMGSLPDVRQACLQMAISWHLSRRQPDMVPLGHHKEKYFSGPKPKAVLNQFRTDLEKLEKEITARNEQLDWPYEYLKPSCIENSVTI
Test: qHTS Assay for Inhibitors of 12-hLO (12-human lipoxygenase); further: nearly all actives have a fitted effect of over 55% in size
Conditions: purified 12-hLO, xylenol orange hydroperoxide absorbance; series mostly up to 57.1 µM
How it was run: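 150 nM 12hLO, 25 mM Hepes pH 7.0 + 0.01% Triton X-100; cpd preinc 15 min RT; 40 uM arachidonic acid, 30 min RT; Fe-XO 30 min; A573/A405 ratio as read-out.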
On the % scale 0 is the no-effect control and ±100 the full control effect; potency means the concentration at half of the fitted maximal effect; tags describe the fitted curve by direction and shape.

Potency, inconclusive:
Cc1ccc2c(c1)C(O)(c1c(C)[nH]c3ccccc13)C(=O)N2 (centres undefined) 28.2 µM [inhibitor, single point]
CCNC(=S)NNC(=O)c1cc(-c2ccc(OCC)cc2)nc2ccccc12 20 µM [inhibitor, single point]
CCCCCCCC#Cc1ccccc1/C=N/S(=O)c1ccc(C)cc1 (centres undefined) 39.8 µM [inhibitor, single point]
C=CCNc1oc(-c2cccc3ccccc23)nc1C#N 10 µM [inhibitor, partial curve]
COc1ccc(C2NC(=S)NC3=C2CCc2cc(OC)ccc23)cc1 (centres undefined) 25.1 µM [inhibitor, partial curve]
CC(C)C1C(C#N)=C(N)Oc2n[nH]c(-c3ccc4ccccc4c3)c21 (centres undefined) 31.6 µM [inhibitor, single point]
CC(C)(C)C(=O)NC(=S)Nc1cc(C(F)(F)F)ccc1N1CCOCC1 31.6 µM [inhibitor, single point]
c1ccc(-c2csc(NNC3=NCCCCC3)n2)cc1 28.2 µM [inhibitor, single point]
Cc1cccc(NC(=S)NCCC(c2ccccc2)c2ccccc2)c1 31.6 µM [inhibitor, single point]
O=C(NCc1ccco1)c1sc(=S)n2c1[nH]c(=O)c1ccccc12 31.6 µM [inhibitor, partial curve]
O=C(NC(NC(=S)Nc1ccc(Cl)cc1Cl)C(Cl)(Cl)Cl)c1cccc([N+](=O)[O-])c1 (centres undefined) 14.1 µM [inhibitor, partial curve]
O=S1(=O)c2ccccc2N=NN1Cc1ccc(Cl)c(Cl)c1 28.2 µM [inhibitor, partial curve, poor fit]
CC(C)N(CCC(=O)c1ccc2ccccc2c1)Cc1ccccc1 14.1 µM [inhibitor, partial curve]
COc1ccc2c(c1OC)C(=O)OC2CC(=O)c1ccc(O)c(O)c1 (centres undefined) 4.47 µM [inhibitor, partial curve, poor fit]
Cc1ccc(NC(=S)Nc2ccc(C(C)C)cc2)cc1S(=O)(=O)N1CCCCCC1 39.8 µM [inhibitor, single point]
O=C1CCCC/C1=C\Nc1ccc(O)cc1 6.31 µM [inhibitor, single point]
Cc1ccc2[nH]c(=O)c(C(c3nnnn3CC3CCCO3)N3CCc4ccccc4C3)cc2c1 (centres undefined) 28.2 µM [inhibitor, single point]
CC(c1ccc(Cl)cc1)n1c(-c2ccc3ccccc3n2)n[nH]c1=S (centres undefined) 39.8 µM [inhibitor, single point]
CCOc1ccc(-c2[nH]ncc2Oc2cccc(OC)c2)c(O)c1 15.8 µM [inhibitor, partial curve]
COc1ccccc1NC(=O)N1CCc2[nH]c3ccc(Cl)cc3c2C1 15.8 µM [inhibitor, partial curve]
CCOC(=O)c1c(NC(=O)C2=C(C)NC(=S)NC2c2ccc(F)cc2F)sc(C)c1C (centres undefined) 17.8 µM [inhibitor, partial curve]
CS(=O)(=O)Nc1cccc(-c2nccc(-n3ccnc3)n2)c1 35.5 µM [inhibitor, single point]
COc1ccc(CCNC(=S)Nc2ccc(C)cc2C)cc1 35.5 µM [inhibitor, single point]
Oc1ccc(CN2CCCc3ccccc32)c2cccnc12 15.8 µM [inhibitor, partial curve]
COc1cc(/C=N/NC(=S)NCc2ccco2)cc(OC)c1OC 39.8 µM [inhibitor, single point]
O=C(NC(=S)Nc1ccc(N2CCOCC2)c(Cl)c1)C(c1ccccc1)c1ccccc1 15.8 µM [inhibitor, partial curve]
COc1cc(C)c(NC(=S)Nc2ccc(Cl)c(Cl)c2)cc1OC 35.5 µM [inhibitor, single point]
CCCCN1C(=O)C2(NNc3ccccc3O2)c2ccccc21 (centres undefined) 14.1 µM [inhibitor, partial curve]
COc1ccc(N=C2S/C(=C\c3ccc(N4CCOCC4)o3)C(=O)N2CCc2c[nH]c3ccccc23)cc1 3.16 µM [inhibitor, full curve]
COc1cc(NS(=O)(=O)c2ccc(N/C=C(\C#N)c3nc4cc(Cl)ccc4o3)cc2)nc(OC)n1 11.2 µM [inhibitor, partial curve]
S=C1NC2(CCCCC2)Cc2ccccc21 28.2 µM [inhibitor, single point]
O=c1c2c(-c3ccco3)csc2nc(SCc2cn3cccnc3n2)n1-c1ccccc1 28.2 µM [inhibitor, single point]
COc1cccc(-c2nn(C)c3sc(C(=O)NCc4ccc(C)o4)cc23)c1 17.8 µM [inhibitor, partial curve, poor fit]
Fc1ccc(CNC(=S)Nc2ccc(OC(F)F)cc2)cc1 28.2 µM [inhibitor, single point]
COC(=O)c1ccc(NC(=S)NCCc2cccc(C)c2)cc1 15.8 µM [inhibitor, partial curve]
COc1ccc(N=c2ssnc2Cl)cc1 39.8 µM [inhibitor, single point]
Cc1ccc(-c2nnc(Cc3ccc(Cl)cc3)o2)cc1 8.91 µM [inhibitor, partial curve]
O=C(/C=C/c1ccccc1)NC(NC(=S)Nc1cccc(O)c1)C(Cl)(Cl)Cl (centres undefined) 39.8 µM [inhibitor, single point]
O=C(COc1ccccc1C(=O)N/N=C\c1ccc(O)c(O)c1)N/N=C/c1ccc(O)c(O)c1 0.282 µM [inhibitor, full curve]
Cc1[nH]n(C(N)=S)c(=O)c1N=Nc1ccc(S(=O)(=O)N2CCCCCC2)cc1 28.2 µM [inhibitor, single point]
S=C(NCc1ccc(Cl)cc1Cl)NC1CCCCC1 35.5 µM [inhibitor, single point]
Cc1cccc(NC(=S)N/N=C/c2ccc3c(c2)OCO3)c1 3.16 µM [inhibitor, single point]
COc1nccnc1NS(=O)(=O)c1ccc(NC(=S)NC(=O)c2ccc(F)cc2)cc1 25.1 µM [inhibitor, partial curve]

Potency, active:
COC(=O)c1ccc2c(c1)C(C)(C)C(/C=C/c1ccccc1O)=[N+]2C 14.1 µM

Potency, inactive:
O=Nc1ccc(NOC(=O)c2ccccc2Br)cc1
C[C@@H](C(=O)NCc1cccc2ccccc12)[C@H]1C[C@]1(C)[C@H](NC(=O)OCc1ccccc1)c1ccccc1
COc1cc2c(cc1OC)C(c1ccc(-c3ccc(Cl)cc3Cl)o1)=NCC2
COc1ccccc1NC(=O)CC(=O)CSc1nnc(-c2ccc(C)cc2)n1C
Cc1ccc(C)c2[nH]c(=O)c(CCNC(=O)c3cc4ccccc4o3)cc12
CCOc1c2ccc(C(=O)NCCc3ccc(C)cc3)cc2nn1CC
O=S(=O)(NCCCCCCc1ccccc1)c1cccc2c(Cl)cccc12
CCOc1cc(/C=N/NC(=O)C(=O)NC)cc(Br)c1O
O=C1CC(N2CCCCC2)C(=O)N1c1ccccc1 (centres undefined)
CCS(=O)(=O)NCCc1cc2c(OC)ccc(OC)c2[nH]c1=O
COC(=O)[C@@]1(C)C=C[C@@H](Cc2ccccc2)N1C
CCc1nnc(SCc2ccc(CSc3nnc(CC)n3N)cc2)n1N
COc1ccc(Cl)cc1Nc1nc(C)cc(C)c1C(N)=O
Cc1csc(SCC(=O)Nc2ccc(S(=O)(=O)N3CCCC3)cc2)n1
CC(=O)Nc1ccc(Cl)cc1C1COC(=O)C1=N (centres undefined)
COc1ccc(/C=N\NC(=O)c2cc(O)c(O)c(O)c2)cc1CN1CCN(c2ccc(F)cc2)CC1
S=c1nc[nH]c2nc[nH]c12
COCCNC(=O)C(=O)NCC1OCCCN1S(=O)(=O)c1cccs1 (centres undefined)
CC(=O)OC1CC[C@@]2(C)C(CC[C@@]3(C)C2CC=C2C4CC(C)(C)CC[C@]4(C(=O)O)CC[C@@]23C)C1(C)C (some centres undefined)
Cc1cc(C(=O)NCC(=O)O)c(C)o1
CCOc1cc(Cl)c(NC(=O)CC)cc1OCC
CCOC(=O)c1cnc2cc(-c3ccc(Cl)cc3)nn2c1N
COc1cc(C(=S)N2CCCC2)cc(Cl)c1OCC(=O)Nc1ccc(C)cc1C
Cc1ccc2nc(C)cc(C(=O)OCC(=O)c3ccc(Cl)c([N+](=O)[O-])c3)c2c1
Cc1c(Cc2ccccc2)sc(/N=C/c2c(O)ccc3ccccc23)c1C(N)=O
Cc1cc2cc(CNC(=O)c3ccc(S(=O)(=O)N4CCCCC4)cc3)ccc2n1C
COc1ccc(CNC2CCCC2)c(OC)c1OC
O=C1CSc2ccccc2N1Cc1ccccc1F
COc1ccc(N2C(=O)CCC(C(=O)NCc3ccccn3)C2c2ccc(F)cc2)cc1 (centres undefined)

Activity change, negative = inhibition, inactive:
O=C1C=CC(=Nc2cccc3c(N=C4C=CC(=O)O4)cccc23)O1 -7.87% [at 11.4 µM]
